Measurements: PubChem BioAssay AID652104 (National Center for Advancing Translational Sciences (NCATS), 2013)
The campaign covered roughly 410,000 compounds. About 7,200 (1.8%) were called active. Inconclusive results, whose numbers are uncertain, are shown with a selection of clear calls. Calls follow the shape of the dose curve; as a rule, active = well fitted activation curve with a large enough effect; inconclusive = small, poorly fitted or top-dose-only effect, or another doubt; inactive = no such curve, though single readings can be large or run the other way. Potencies of inconclusive entries are left out as doubtful fits.

Assay: qHTS of TDP-43 Inhibitors; also: nearly all actives have a fitted effect of over 50% in size; as to growth rescue (activation): % of control where 0% means no effect
Details: TDP-43 expressing yeast growth rescue, BacTiter-Glo, 24 h; growth rescue (activation): at 46.1 µM (top of the series) unless noted
In short: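 In this qHTS, compounds that restore growth of yeast expressing TDP-43 appear as activators. Cells (OD600=0.02, galactose medium, raffinose-pregrown) are incubated with compound 24 hr at 30 deg C and growth is quantified by BacTiter-Glo.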
Potency is read from the fitted curve at half-maximal effect; tags tell the direction and shape of the fitted curve.

Row | Compound | Potency | growth rescue (activation)
1 | CCOc1ccc(NC(=O)N2CCOc3ccccc32)cc1 | active: 11.2 µM | 
2 | CCCCC(=O)Nc1cc(C)c2c(=O)oc3ccccc3c2n1 | inconclusive [activator, full curve] | 
3 | COc1ccc(C2=CC(=O)CC(c3ccc(F)cc3)C2)cn1 (centres undefined) | active: 17.8 µM | 
4 | CCN(C(=O)Cc1c(C(=O)O)n(CC)c2ccccc12)c1cccc(C(F)(F)F)c1 | inconclusive [activator, single point] | 
5 | CCCn1c(CCC(=O)O)ccc1-c1ccc(F)cc1 | inconclusive [activator, single point] | 
6 | Cc1ccccc1NP(=O)(c1ccccc1)c1nc2ccccc2s1 (centres undefined) | inconclusive [activator, partial curve] | 
7 | CC1=C(C)C(=O)C(CCCCC#CCCCC#CCO)=C(C)C1=O | inactive | 
8 | Cc1cc(C)c(/C=C(\C#N)C(N)=S)c(C)c1 | active: 11.2 µM | 
9 | CCc1ccc(-n2c(C)nnc2SCc2nc(-c3ccc(OC)cc3)no2)cc1 | inconclusive [activator, single point] | 
10 | Cc1ccc(-c2cc3ncc(C(=O)c4cc([N+](=O)[O-])ccc4O)cn3n2)cc1 | inconclusive [activator, single point] | 
11 | O=C(CCC(=O)OCc1ccc(Cl)cc1)Nc1cccc([N+](=O)[O-])c1 | inconclusive [activator, single point] | 
12 | Nc1ccccc1Nc1cc(-c2cccc(Cl)c2)nn1-c1ccccc1 | inconclusive [activator, single point] | 
13 | CN(Cc1ccccc1)c1nc(-c2ccc(F)cc2)cc(C(F)(F)F)n1 | inactive | 
14 | Clc1ccccc1C1=CC(c2ccco2)n2ncnc2N1 (centres undefined) | active: 14.1 µM | 
15 | COc1cc(/C=C2\C(=O)ON=C2c2ccccc2)cc(OC)c1OC | inconclusive [activator, single point] | 
16 | COc1cc(OC)c(C(=O)Nc2ccc(S(=O)(=O)N3CCCCC3)cc2)cc1OC | inconclusive [activator, single point] | 
17 | Cc1nc(-c2ccc([N+](=O)[O-])cc2)c(-c2ccccc2)o1 | inconclusive [activator, full curve] | 
18 | COCCNC(=O)C1CCCN(C(=O)c2ccc3c(c2)C(C)(C)CCC3(C)C)CC1 (centres undefined) | inconclusive [activator, partial curve, poor fit] | 
19 | Cc1cc(=O)oc2c3c(cc(OCC(=O)N[C@@H](Cc4ccccc4)C(=O)O)c12)OC(C)(C)CC3 | inconclusive [activator, full curve, poor fit] | 
20 | Cc1ccc2c(c1)cc(CN(Cc1cccs1)C(=O)c1ccco1)c1nnnn12 | inconclusive [activator, single point] | 
21 | Fc1ccccc1OCCn1c(=S)[nH]c2ccccc21 | inconclusive [activator, single point] | 
22 | Oc1ccc(-c2nncn2-c2ccccc2)cc1 | inactive | 
23 | COc1ccc(C(=O)NCCc2ccc(F)cc2)cc1OC | inconclusive [activator, partial curve] | 

Row | Compound | Potency | growth rescue (activation)
24 | CC(C)C1C(=O)N(Cc2cn(CCC3OCCO3)nn2)CCS(=O)(=O)N1Cc1ccc(-c2ccc(Cl)cc2)cc1 (centres undefined) | active: 35.5 µM | 
25 | O=C(Nc1cccc(F)c1)c1cccnc1N1CCOCC1 | inconclusive [activator, single point] | 
26 | Cn1cnc([N+](=O)[O-])c1S(=O)(=O)Nc1ccccc1 | inactive | 
27 | Cc1ccc(CNC(=O)C2CC(c3ccccc3[N+](=O)[O-])=NO2)cc1 (centres undefined) | inconclusive [activator, partial curve] | 
28 | Clc1ccccc1Cn1nnc(-c2cccs2)n1 | inconclusive [activator, single point] | 
29 | COc1cccc2sc(N3CCN(C(=O)C4COc5ccccc5O4)CC3)nc12 (centres undefined) | inconclusive [activator, single point] | 
30 | Cc1cc(C)cc(-n2nnc(C(=O)NCc3ccc4c(c3)OCO4)c2N)c1 | inconclusive [activator, partial curve] | 
31 | CC12CCC(C(=O)N(CC(O)CN3CCN(Cc4ccccc4)CC3)C1=O)C2(C)C (centres undefined) | inactive | 
32 | CCOc1ccccc1-c1nnc(SCc2ccc(Cl)cc2)o1 | inconclusive [activator, partial curve] | 
33 | Cc1cc(C)n(-c2ccc(C(=O)OCC(=O)NCc3ccc(F)cc3)cc2)n1 | inconclusive [activator, partial curve] | 
34 | C(=C\c1ccccc1)/CN1CCN(C(c2nnnn2C2CCCCC2)C2CC2)CC1 (centres undefined) |  | inconclusive: 23.7% [activator]
35 | O=C(C#Cc1ccccc1)NCc1ccccc1F | inconclusive [activator, single point] | 
36 | O=C(c1ccco1)N(Cc1ccc(Cl)cc1)Cc1ccco1 | inconclusive [activator, partial curve] | 
37 | C=C1CCN([C@@H](Cc2ccccc2)C(=O)N2CCOCC2)S(=O)(=O)c2ccccc21 | inconclusive [activator, partial curve, poor fit] | 
38 | CCc1sc(C(=O)NCc2ccccc2)cc1C | inconclusive [activator, single point] | 
39 | Cc1ccc(NC(=S)NC(=O)C2CC2)cc1Cl | active: 31.6 µM | 
40 | O=C(NCc1ccc2c(c1)OCO2)C1Cc2ccccc2CN1C(=O)c1ccco1 (centres undefined) | inconclusive [activator, partial curve] | 
41 | CC(C)N(C(=O)[C@H]1C[C@H](CC(=O)NC(C)(C)C)C(=O)N2CCc3c([nH]c4ccc(Cl)cc34)[C@]12C)C(C)C | inconclusive [activator, single point] | 
42 | CCCCn1c(O)c2n(c1=O)Cc1ccccc1N=C2c1ccc(OC)cc1 | inactive | 
43 | Cc1ccc(Nc2c3c(nc4ncnn24)CCC3)cc1 | inconclusive [activator, single point] | 
44 | COc1ccc(OC)c(/C=C2\SC(=S)N(Cc3cccnc3)C2=O)c1 | inconclusive [activator, partial curve] | 
45 | c1ccc(CCc2nc(-c3cccnc3)no2)cc1 | inconclusive [activator, partial curve] | 
46 | CC(C)c1ccc(NC(=O)c2cc3c(s2)-c2ccccc2SC3)cc1 | inactive | 

Row | Compound | Potency | growth rescue (activation)
47 | NC(=S)N/N=C/c1ccc(C23CC4CC(CC(C4)C2)C3)cc1 |  | inconclusive: 77.7% [activator]
48 | Cc1ccc2cc(/C=N/NC(=O)[C@@H]3CCCN3)c(Cl)nc2c1 | active: 4.47 µM | 
49 | Brc1ccc(CSc2nnc(-c3cnccn3)n2Cc2ccco2)cc1 | active: 35.5 µM | 
50 | COc1ccc(-c2csc(C(O)c3ccc(OC)cc3)n2)cc1 (centres undefined) | inconclusive [activator, partial curve, poor fit] | 
51 | COc1ccc(NS(=O)(=O)c2ccc3oc4ccccc4c3c2)cn1 | inconclusive [activator, single point] | 
52 | COC(=O)c1ccc2nc3c(cc2c1)[C@@H]1CCN2C(=O)CCC[C@H](C3)[C@H]12 | inactive | 
53 | Clc1ccc(Cn2ncc3c(N4CCCCC4)ncnc32)cc1 | inconclusive [activator, single point] | 
54 | O=C(Nc1cc2c(cc1Br)OCCCO2)c1cccnc1 | inconclusive [activator, partial curve] | 
55 | Cc1cc(OC(=O)c2ccc(C(F)(F)F)cc2)c([N+](=O)[O-])c(=O)[nH]1 | inconclusive [activator, single point] | 
56 | CCC(CC)C(=O)Nc1ccc(OCc2cc(=O)n3c4c(sc3n2)CCCC4)cc1 | inactive | 
57 | Cc1cccc(NC(=O)C(Cc2ccccc2)n2cccc2)c1 (centres undefined) | inconclusive [activator, partial curve] | 
58 | CCCCN1C(=S)NC[C@@H]1Cc1cccc2ccccc12 | inconclusive [activator, partial curve] | 
59 | O=C(Nc1cccc(Cl)c1)Nc1ccccc1C(=O)NCc1ccco1 | inconclusive [activator, single point] | 
60 | Cn1cc(S(=O)(=O)c2cccc(Cl)c2)c(=O)c2cc(F)c(N3CCCCCC3)cc21 | inconclusive [activator, single point] | 
61 | COc1ccc(Cl)cc1C(=O)NCc1ccc2c(c1)OCO2 | inconclusive [activator, single point] | 
62 | COc1ccccc1N1CCN(C(=O)c2ccc(CS(=O)c3ccccc3C)o2)CC1 (centres undefined) | inactive | 
63 | COc1ccc(CCN2C(=O)c3oc4cc(C)cc(C)c4c(=O)c3C2c2ccc(F)cc2)cc1OC (centres undefined) | inconclusive [activator, partial curve] | 
64 | O=C(Nc1nncs1)c1cccc(S(=O)(=O)N2CCc3ccccc32)c1 | inconclusive [activator, partial curve] | 
65 | COc1cccc(CNC(=O)c2cc3c(C)nc4ccccc4c3o2)c1 | inactive | 
66 | CC1(C)CC(=O)C(CC(=O)NC2CCCc3ccccc32)C(=O)C1 (centres undefined) | active: 25.1 µM | 
67 | Cc1ccccc1-c1cc(C(=O)O)nn1CC1CC(c2cccc([N+](=O)[O-])c2)=NO1 (centres undefined) | inconclusive [activator, full curve, poor fit] | 
68 | O=C(CN1CCN(S(=O)(=O)c2cc(Cl)ccc2Cl)CC1)Nc1cccc(F)c1 | active: 35.5 µM | 
69 | Cc1cc(CCNC=O)c(C)c2c1sc1ccccc12 | inconclusive [activator, single point] | 
